Experimental data: paper PMC12136788
This is one part of the list.

B1: chr1:25167287:25167288:+_ENSG00000169504_ENST00000374379|hu_hu|FALSE|FALSE (ssRNA)
RNA: GGGAGUUCUACAGUCCGACGAUCACUGUAUGCAUUAGUUAGGUAUCUCCAGAUGCCAGUCAUUUCUUUUGGAAUAUCAAAGUUGCGAUAUUUUUUGGCCACCACCUUGACAAUAUGCAGUUUGGGCAGCAGGUUGCAAUCAGCCAACAGAGGAUUGAGCAUCA
B2: chr4:40680873:40680874:+_ENSMUSG00000028410_ENSMUST00000030118|mus_mus|FALSE|FALSE (ssRNA)
RNA: GGGAGUUCUACAGUCCGACGAUCAUUCUGAUAUCCAGAUUUAAGCAUGUAAGCAUGUGACUUCAAAACAUACAACAAAUCUAUUCAUAAUUUGCUAUACUACCAACAUUAAAUUGCAGUUACGUUGGAGCCUAAGUCGAAUAGCAACAGAGGAUUGAGCAUCA
B3: chr1:225611761:225611762:-_ENSG00000143815_ENST00000272163|hu_mus|hu_hu_hu_mus_True|58_58 (ssRNA)
RNA: GGGAGUUCUACAGUCCGACGAUCCCAGGCCAUCGGCCUCUGACCACUUCACCCUCAACAAACUUCCUACUUGGCAUUUUCUAUAAUUAGUCUGGCCGCGCUCCGGCGGGAACUCCAGCCACUCCAGGACAGUCACCAGCAGCCCAACAGAGGAUUGAGCAUCA
B4: chr4:3761713:3761714:-_ENSMUSG00000028234_ENSMUST00000103009|mus_mus|FALSE|FALSE (ssRNA)
RNA: GGGAGUUCUACAGUCCGACGAUCCUCAACUCCCGGCUCAAUACUGAUGGAAGUAAUCUGCUUAACAAUCUCAGAAGGACUAUGUAAAUCAAUGAGUCGCUUGUGGAUCCUCAUCUGGAAUCGAUCCCAGGUCUUGGAACCUUCCAACAGAGGAUUGAGCAUCA
B5: chr8:30040655:30040656:+_ENSG00000104671_ENST00000221114|hu_mus|FALSE|FALSE (ssRNA)
RNA: GGGAGUUCUACAGUCCGACGAUCAACCGAGCACCACUGACAUCUUCUCAGUUCUUAACUGGGGUUGAGCUGCCUUUCAUCGUCUUCUUCAGGUGGUGGUAAUUGGGCAAGAUCUUCAUCAGGAAAUCCAGUUGUAGAGUCUGGCAACAGAGGAUUGAGCAUCA
B6: chr11:103723314:103723315:-_ENSMUSG00000034187_ENSMUST00000103075|mus_hu|FALSE|FALSE (ssRNA)
RNA: GGGAGUUCUACAGUCCGACGAUCCACCAGCAGCUCCCCAUCAUCUAGAACUCGAGUAACUGGGUCACCCCAUUUGAUGAUACCGUUCAUAAUGUAACUUGCAUAAUCUUCUUGGUUUGUGCCAAAGGCUGGUUUGAUAUCAUUCAACAGAGGAUUGAGCAUCA
B7: chr6:55002191:55002192:+_ENSMUSG00000029777_ENSMUST00000003572|mus_mus|FALSE|FALSE (ssRNA)
RNA: GGGAGUUCUACAGUCCGACGAUCGUGGUCUGCUCGGAAGCACUCUCCGUUCUUCACGUCCUUCACCAUGAAGUCAGCAAAUUUGUCUACGUGGCCAGAGGUCUUUAAAACUGGCUCAGGGGUGAGCAUGGUGCAGUCAAUCUCCAACAGAGGAUUGAGCAUCA
B8: chr4:115894766:115894767:+_ENSMUSG00000028698_ENSMUST00000030464|mus_hu|mus_mus_mus_hu_True|58_98 (ssRNA)
RNA: GGGAGUUCUACAGUCCGACGAUCUUCCACACGGAAAGUACUUGGGGGUUUUCCAACGGCCAGUACCAGUCCGGCCAACUACUAGGAACAGGGUCCUCCCCCUCUCUCCUACAGAACACAACAAAAUGCCCCCGAACUUUCAAGCAACAGAGGAUUGAGCAUCA
B9: chr11:4040516:4040517:+_ENSMUSG00000003581_ENSMUST00000003677|mus_mus|FALSE|FALSE (ssRNA)
RNA: GGGAGUUCUACAGUCCGACGAUCUCUCCUGUAGUGUAGGCUGGGAAGGGUCCGUCCCGAACUGCAGACUUUCCACUGGGGCAGUUAGUCAUCUGAGUAGUGGUUCCCCAGGACGUUGAACUUGCACAGUGGGCAGGUCUGUUGCAACAGAGGAUUGAGCAUCA
B10: chr2:125074910:125074911:+_ENSMUSG00000027203_ENSMUST00000082122|mus_mus|FALSE|FALSE (ssRNA)
RNA: GGGAGUUCUACAGUCCGACGAUCCUUUACAGCCAAGCCAGAACGUGGAGCUACUCUUCCAUAGCACCCAGAAGGGACAGCUAUCUGAAUGUCUGUCUUCACGAUGGCUUUCUCCAUGGGUGAUAUUGUAUAAUCAUAGGCACUCAACAGAGGAUUGAGCAUCA
B11: chr16:16313726:16313727:-_ENSMUSG00000022789_ENSMUST00000023477|mus_mus|motif|central (ssRNA)
RNA: GGGAGUUCUACAGUCCGACGAUCAUACAUUGAUUAUGUGAGGAACUUGCCAGGCUCCAUCUUUUAAAGCCAGGUCAGUCGGUAUAAAUAGUGCAUGCAUUAUAGUCAUGAAAUGUCCUGGAGCUUCCUUUCUGAGGACUACAGCAACAGAGGAUUGAGCAUCA
B12: chr5:64942916:64942917:+_ENSG00000113597_ENST00000231526|hu_hu|FALSE|FALSE (ssRNA)
RNA: GGGAGUUCUACAGUCCGACGAUCAGCAUUGGAGGCUGAAAGAUUUAAACGCUGAGAACUUGUCUGAAGAUCAGCUUUUACUAAUAUGUCUUUUACAACUUGAUUGCUAUCAUUAUGAACGCUGAUAUAACUGGAAAAGGUCUCCAACAGAGGAUUGAGCAUCA
B13: chr11:4749296:4749297:-_ENSMUSG00000009073_ENSMUST00000109910|mus_mus|FALSE|FALSE (ssRNA)
RNA: GGGAGUUCUACAGUCCGACGAUCGCAGCCCCGAGCUUGGAGCUUCGGGCUGGGGACGCCAGGGACGCCUUUGGACAGAAAUCCUAGACGGCUGCGGCGCCGACGCCGGGCCUCUCAGCGACCCCCGAGGGUCGCGGGGCCGCGCAACAGAGGAUUGAGCAUCA
B14: chr8:74704862:74704863:-_ENSG00000104343_ENST00000602593|hu_hu|FALSE|FALSE (ssRNA)
RNA: GGGAGUUCUACAGUCCGACGAUCACUGGCUUUCAGUUUUAAGCCCAAAUUGAUUCAUAUAUUCACUGCAGGAUAUUUCAAAAAGAGUGCAACAAUAAGGCAUUAGUAAAAAUAACAUUGUAGUAGAAACAGAUUUUGCAUAUGCAACAGAGGAUUGAGCAUCA

Biological target: T1, UNK ZnF1-3 (human, UniProt Q9C0B0 31-174)
T1 sequence: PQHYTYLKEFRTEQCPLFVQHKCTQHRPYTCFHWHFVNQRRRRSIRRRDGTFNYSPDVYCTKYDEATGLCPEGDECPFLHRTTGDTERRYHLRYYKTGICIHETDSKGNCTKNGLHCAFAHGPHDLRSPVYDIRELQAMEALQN
Assay: nsRBNS (natural sequence RNA bind-n-seq); RBNS binding buffer (assumed for nsRBNS): 25 mM Tris pH 7.5, 150 mM KCl, 3 mM MgCl2, 0.01% Triton X-100, 500 ug/ml BSA, 20 U/ml SUPERase-In, 4 C; UNK is unkempt and MSI1 is Musashi-1; names of the RNAs are library labels; protein concentration not given here; high values mean tight binding

Point of comparison: B1, binding signal 1.29 enrichment R. Against it:
- B2 — lower, 0.48 enrichment R
- B3 — lower, 1.26 enrichment R
- B4 — lower, 1.1 enrichment R
- B5 — higher, 1.47 enrichment R
- B6 — lower, 0.925 enrichment R
- B7 — lower, 0.913 enrichment R
- B8 — lower, 1.22 enrichment R
- B9 — lower, 0.442 enrichment R
- B10 — lower, 0.705 enrichment R
- B11 — lower, 0.798 enrichment R
- B12 — higher, 1.36 enrichment R
- B13 — lower, 0.596 enrichment R
- B14 — higher, 1.78 enrichment R
